Data taken from a collection of fitness landscapes (doi:10.1126/science.1257360).
The other results are listed elsewhere or left out.

B1: PhoQ; a variant is named by its letters at X, in order, P23837 (parent)
chain: MKKLLRLFFPLSLRVRFLLATAAVVLVLSLAYGMVALIGYSVSFDKTTFRLLRGESNLFYTLAKWENNKLHVELPENIDKQSPTMTLIYDENGQLLWAQRDVPWLMKMIQPDWLKSNGFHEIEADVNDTSLLLSGDHSIQQQLQEVREDDDDAEMTHSVAVNVYPATSRMPKLTIVVVDTIPVELKSSYMVWSWFIYVLSANLLLVIPLLWVAAWWSLRPIEALAKEVRELEEHNRELLNPATTRELTSLVRNLNRLLKSERERYDKYRTTLTDLTHSLKTPLXXLQXXLRSLRSEKMSVSDAEPVMLEQISRISQQIGYYLHRASMRGGTLLSRELHPVAPLLDNLTSALNKVYQRKGVNISLDISPEISFVGEQNDFVEVMGNVLDNACKYCLEFVEISARQTDEHLYIVVEDDGPGIPLSKREVIFDRGQRVDTLRPGQGVGLAVAREITEQYEGKIVAGESMLGGARMEVIFGRQHSAPKDE

Variants of: B1
Assay: enrichment ratio after two sorts for PhoP signalling (ratio (wild type AVST 3.29)); higher = more functional
Details: with PhoP (E. coli)

Variant | enrichment ratio
QFCK | ≤ 0.25
FNFG | ≤ 0.25
MQYD | ≤ 0.25
TGTF | 4.57
WYYH | ≤ 0.25
GMQL | ≤ 0.25
PVAV | ≤ 0.25
VEPY | ≤ 0.25
QKLT | ≤ 0.25
WLFE | ≤ 0.25
FKDG | ≤ 0.25
NIPD | ≤ 0.25
GQKT | ≤ 0.25
MLIR | ≤ 0.25
EDDN | ≤ 0.25
RDWI | 2.2
DTWH | ≤ 0.25
ISLS | ≤ 0.25
HNDM | ≤ 0.25
YADH | ≤ 0.25
HRRH | ≤ 0.25
TAFA | 0.563
LIHR | ≤ 0.25
LLRT | ≤ 0.25

Variant | enrichment ratio
ENYK | ≤ 0.25
MRYN | ≤ 0.25
KLCT | ≤ 0.25
KAVY | 0.289
SFVA | 0.932
YSCG | ≤ 0.25
HDHI | ≤ 0.25
RRTG | ≤ 0.25
IAQI | ≤ 0.25
TCQW | ≤ 0.25
LNCP | ≤ 0.25
FHNS | ≤ 0.25
VVWN | ≤ 0.25
IWYY | ≤ 0.25
YCQL | ≤ 0.25
VYCP | ≤ 0.25
HWSI | ≤ 0.25
QPCN | ≤ 0.25
IHSE | ≤ 0.25
PYHI | ≤ 0.25
MQGQ | ≤ 0.25
VAFC | ≤ 0.25
KAYS | ≤ 0.25
WPIQ | ≤ 0.25

Variant | enrichment ratio
ICCY | ≤ 0.25
NDKD | ≤ 0.25
WLGP | ≤ 0.25
WSDN | ≤ 0.25
LNSY | ≤ 0.25
NERT | ≤ 0.25
AYRY | ≤ 0.25
AHMA | ≤ 0.25
WPTY | ≤ 0.25
RRYM | ≤ 0.25
NFPR | ≤ 0.25
KEYP | ≤ 0.25
STKP | ≤ 0.25
MSAD | ≤ 0.25
VRGW | ≤ 0.25
AHPP | ≤ 0.25
FPYT | ≤ 0.25
AQDS | ≤ 0.25
IQMQ | ≤ 0.25
AFSM | 0.932
YQEA | ≤ 0.25
GHSK | ≤ 0.25
IYIM | ≤ 0.25
DPHG | ≤ 0.25

Variant | enrichment ratio
MCHM | 16.7
KNYG | ≤ 0.25
IMWR | ≤ 0.25
KQFH | ≤ 0.25
AWYQ | ≤ 0.25
FLKI | ≤ 0.25
PRTV | ≤ 0.25
DLVW | ≤ 0.25
LGFM | 10.3
PYRS | ≤ 0.25
AYFY | ≤ 0.25
ADPD | ≤ 0.25
EMII | ≤ 0.25
IKHQ | ≤ 0.25
FIIK | ≤ 0.25
MSSL | 9.59
SAHT | ≤ 0.25
VVVF | ≤ 0.25
NLMF | ≤ 0.25
VVCQ | ≤ 0.25
DLRD | ≤ 0.25
KRTF | ≤ 0.25
WIPR | ≤ 0.25
RVIN | ≤ 0.25

Variant | enrichment ratio
EFPM | ≤ 0.25
WKYY | ≤ 0.25
TICC | 2.66
HGYK | ≤ 0.25
LGMY | ≤ 0.25
NPHC | ≤ 0.25
VTCQ | 6.57
AIMP | ≤ 0.25
IQNV | ≤ 0.25
DCQW | ≤ 0.25
TGMY | 12.7
KQVI | ≤ 0.25
EVRL | ≤ 0.25
QRWF | ≤ 0.25
SRTF | ≤ 0.25
PSGR | ≤ 0.25
HDIV | ≤ 0.25
VDPE | ≤ 0.25
WEWC | ≤ 0.25
RDHI | ≤ 0.25
RCAA | ≤ 0.25
FWAI | ≤ 0.25
IYWS | ≤ 0.25
WPTD | ≤ 0.25

Variant | enrichment ratio
VLDW | ≤ 0.25
IKYE | ≤ 0.25
TRNA | 0.827
DTHL | ≤ 0.25
IYVP | ≤ 0.25
GHLA | ≤ 0.25
SCFY | ≤ 0.25
NSGW | ≤ 0.25
TNVK | ≤ 0.25
QHLM | ≤ 0.25
QSKT | ≤ 0.25
AKPV | ≤ 0.25
RDMV | ≤ 0.25
WYED | ≤ 0.25
NMVA | ≤ 0.25
RGAE | ≤ 0.25
HTTS | ≤ 0.25
QNPY | ≤ 0.25
YSGR | ≤ 0.25
VYKY | ≤ 0.25
RFCA | ≤ 0.25
IIHN | ≤ 0.25
NASE | ≤ 0.25
HTDQ | ≤ 0.25

Variant | enrichment ratio
LHIQ | ≤ 0.25
GQIT | ≤ 0.25
LEDV | ≤ 0.25
PWTW | ≤ 0.25
NWMA | ≤ 0.25
NNAM | ≤ 0.25
VTCD | ≤ 0.25
QMNT | ≤ 0.25
IPKD | ≤ 0.25
SRDE | ≤ 0.25
FWFP | ≤ 0.25
RFLV | ≤ 0.25
GVAI | ≤ 0.25
SGYC | 0.294
SAES | ≤ 0.25
GMGQ | ≤ 0.25
CQMP | ≤ 0.25
INRA | ≤ 0.25
KSDS | ≤ 0.25
HTDE | ≤ 0.25
MDRH | ≤ 0.25
HSGA | ≤ 0.25
GSNN | ≤ 0.25
QPGH | ≤ 0.25

Variant | enrichment ratio
PYVY | ≤ 0.25
LDWH | ≤ 0.25
NRAE | ≤ 0.25
TSAS | 10.2
PGDD | ≤ 0.25
CQHS | ≤ 0.25
PYMS | ≤ 0.25
RKCD | ≤ 0.25
SPQA | ≤ 0.25
RYMM | ≤ 0.25
DGRH | ≤ 0.25
PDPP | ≤ 0.25
MMDI | ≤ 0.25
VPFW | ≤ 0.25
VEAN | ≤ 0.25
ITDG | ≤ 0.25
MNAV | 2.67
MTGG | 0.473
PPQP | ≤ 0.25
MIIK | ≤ 0.25
DFEF | ≤ 0.25
RKIY | ≤ 0.25
RSDC | ≤ 0.25
YHNA | ≤ 0.25

Variant | enrichment ratio
RVIT | ≤ 0.25
ALFL | ≤ 0.25
HSDI | ≤ 0.25
VNCP | ≤ 0.25
KFID | ≤ 0.25
HEDV | ≤ 0.25
YVPR | ≤ 0.25
LCWV | ≤ 0.25
QDQS | ≤ 0.25
SCAC | 10.6
QHPR | ≤ 0.25
NKKL | ≤ 0.25
RYHA | ≤ 0.25
EDAC | ≤ 0.25
RCMD | ≤ 0.25
RYSY | ≤ 0.25
HDVI | ≤ 0.25
VNVH | 0.711
KFNT | ≤ 0.25
FDAW | ≤ 0.25
QDLL | ≤ 0.25
VRGN | ≤ 0.25
EMHY | ≤ 0.25
IGGI | ≤ 0.25

Variant | enrichment ratio
DKFT | ≤ 0.25
QRCW | ≤ 0.25
YLIN | ≤ 0.25
LRGF | ≤ 0.25
KDER | ≤ 0.25
FPLR | ≤ 0.25
VSQA | ≤ 0.25
RVFR | ≤ 0.25
TNES | ≤ 0.25
DDLP | ≤ 0.25
DWRH | ≤ 0.25
MVPQ | ≤ 0.25
RQGM | ≤ 0.25
WFLH | ≤ 0.25
VRNA | ≤ 0.25
FDFN | ≤ 0.25
YHPG | ≤ 0.25
QTEW | ≤ 0.25
RLPM | ≤ 0.25
WQPN | ≤ 0.25
EFRK | ≤ 0.25
YFFV | ≤ 0.25
QFAD | ≤ 0.25
AEIL | 28.2

Variant | enrichment ratio
SYHP | ≤ 0.25
YSEV | ≤ 0.25
PRHS | ≤ 0.25
ACAG | 3.23
WVPD | ≤ 0.25
MTSI | 1.53
CSSM | ≤ 0.25
RNQF | ≤ 0.25
NDKL | ≤ 0.25
MISW | ≤ 0.25
PGLT | ≤ 0.25
YNYW | ≤ 0.25
TFKF | ≤ 0.25
DHAK | ≤ 0.25
SLYE | ≤ 0.25
IPCD | ≤ 0.25
VDHT | ≤ 0.25
SFSV | ≤ 0.25
VQIR | ≤ 0.25
RCIT | ≤ 0.25
NHMW | ≤ 0.25
TIGM | 21.8
TFGF | ≤ 0.25
FSCM | 16.6

Variant | enrichment ratio
QHAE | ≤ 0.25
SCRI | ≤ 0.25
SPES | ≤ 0.25
RRGK | ≤ 0.25
KPVH | ≤ 0.25
EIQL | ≤ 0.25
RRDQ | ≤ 0.25
RLDY | ≤ 0.25
GDAW | ≤ 0.25
AQIT | 0.538
IFPT | ≤ 0.25
CYTP | ≤ 0.25
KIFN | ≤ 0.25
RWHD | ≤ 0.25
KPRS | ≤ 0.25
IQMR | ≤ 0.25
PIGN | ≤ 0.25
NRPK | ≤ 0.25
MYWS | ≤ 0.25
AGWS | ≤ 0.25
FMTY | ≤ 0.25
NLWP | ≤ 0.25
QSRM | ≤ 0.25
QDHS | ≤ 0.25

Variant | enrichment ratio
FQSQ | ≤ 0.25
NKDG | ≤ 0.25
TCLN | 13.6
QFFY | ≤ 0.25
LPIF | ≤ 0.25
SPWP | ≤ 0.25
SKKH | ≤ 0.25
KVKR | ≤ 0.25
GNGR | ≤ 0.25
NMGP | ≤ 0.25
IKAV | ≤ 0.25
LKQM | 1.53
ANEY | ≤ 0.25
RLRG | ≤ 0.25
HYDI | ≤ 0.25
TIQI | 12.3
RYDN | ≤ 0.25
WIYL | ≤ 0.25
